For nine molecules, binding results are on record in publication PMC5663739.

By UniProt entry, the sequences of proteins in these tests, tags left out.
UniProt Q9CQJ4: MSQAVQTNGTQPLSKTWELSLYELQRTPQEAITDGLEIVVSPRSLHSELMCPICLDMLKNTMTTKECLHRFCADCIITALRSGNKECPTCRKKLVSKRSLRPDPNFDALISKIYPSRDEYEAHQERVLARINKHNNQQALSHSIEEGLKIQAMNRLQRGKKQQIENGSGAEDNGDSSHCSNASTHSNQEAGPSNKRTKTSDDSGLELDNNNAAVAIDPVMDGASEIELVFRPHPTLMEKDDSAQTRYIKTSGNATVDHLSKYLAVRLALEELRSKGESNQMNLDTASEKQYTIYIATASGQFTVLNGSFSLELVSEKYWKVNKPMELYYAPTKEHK
UniProt A2AWL7: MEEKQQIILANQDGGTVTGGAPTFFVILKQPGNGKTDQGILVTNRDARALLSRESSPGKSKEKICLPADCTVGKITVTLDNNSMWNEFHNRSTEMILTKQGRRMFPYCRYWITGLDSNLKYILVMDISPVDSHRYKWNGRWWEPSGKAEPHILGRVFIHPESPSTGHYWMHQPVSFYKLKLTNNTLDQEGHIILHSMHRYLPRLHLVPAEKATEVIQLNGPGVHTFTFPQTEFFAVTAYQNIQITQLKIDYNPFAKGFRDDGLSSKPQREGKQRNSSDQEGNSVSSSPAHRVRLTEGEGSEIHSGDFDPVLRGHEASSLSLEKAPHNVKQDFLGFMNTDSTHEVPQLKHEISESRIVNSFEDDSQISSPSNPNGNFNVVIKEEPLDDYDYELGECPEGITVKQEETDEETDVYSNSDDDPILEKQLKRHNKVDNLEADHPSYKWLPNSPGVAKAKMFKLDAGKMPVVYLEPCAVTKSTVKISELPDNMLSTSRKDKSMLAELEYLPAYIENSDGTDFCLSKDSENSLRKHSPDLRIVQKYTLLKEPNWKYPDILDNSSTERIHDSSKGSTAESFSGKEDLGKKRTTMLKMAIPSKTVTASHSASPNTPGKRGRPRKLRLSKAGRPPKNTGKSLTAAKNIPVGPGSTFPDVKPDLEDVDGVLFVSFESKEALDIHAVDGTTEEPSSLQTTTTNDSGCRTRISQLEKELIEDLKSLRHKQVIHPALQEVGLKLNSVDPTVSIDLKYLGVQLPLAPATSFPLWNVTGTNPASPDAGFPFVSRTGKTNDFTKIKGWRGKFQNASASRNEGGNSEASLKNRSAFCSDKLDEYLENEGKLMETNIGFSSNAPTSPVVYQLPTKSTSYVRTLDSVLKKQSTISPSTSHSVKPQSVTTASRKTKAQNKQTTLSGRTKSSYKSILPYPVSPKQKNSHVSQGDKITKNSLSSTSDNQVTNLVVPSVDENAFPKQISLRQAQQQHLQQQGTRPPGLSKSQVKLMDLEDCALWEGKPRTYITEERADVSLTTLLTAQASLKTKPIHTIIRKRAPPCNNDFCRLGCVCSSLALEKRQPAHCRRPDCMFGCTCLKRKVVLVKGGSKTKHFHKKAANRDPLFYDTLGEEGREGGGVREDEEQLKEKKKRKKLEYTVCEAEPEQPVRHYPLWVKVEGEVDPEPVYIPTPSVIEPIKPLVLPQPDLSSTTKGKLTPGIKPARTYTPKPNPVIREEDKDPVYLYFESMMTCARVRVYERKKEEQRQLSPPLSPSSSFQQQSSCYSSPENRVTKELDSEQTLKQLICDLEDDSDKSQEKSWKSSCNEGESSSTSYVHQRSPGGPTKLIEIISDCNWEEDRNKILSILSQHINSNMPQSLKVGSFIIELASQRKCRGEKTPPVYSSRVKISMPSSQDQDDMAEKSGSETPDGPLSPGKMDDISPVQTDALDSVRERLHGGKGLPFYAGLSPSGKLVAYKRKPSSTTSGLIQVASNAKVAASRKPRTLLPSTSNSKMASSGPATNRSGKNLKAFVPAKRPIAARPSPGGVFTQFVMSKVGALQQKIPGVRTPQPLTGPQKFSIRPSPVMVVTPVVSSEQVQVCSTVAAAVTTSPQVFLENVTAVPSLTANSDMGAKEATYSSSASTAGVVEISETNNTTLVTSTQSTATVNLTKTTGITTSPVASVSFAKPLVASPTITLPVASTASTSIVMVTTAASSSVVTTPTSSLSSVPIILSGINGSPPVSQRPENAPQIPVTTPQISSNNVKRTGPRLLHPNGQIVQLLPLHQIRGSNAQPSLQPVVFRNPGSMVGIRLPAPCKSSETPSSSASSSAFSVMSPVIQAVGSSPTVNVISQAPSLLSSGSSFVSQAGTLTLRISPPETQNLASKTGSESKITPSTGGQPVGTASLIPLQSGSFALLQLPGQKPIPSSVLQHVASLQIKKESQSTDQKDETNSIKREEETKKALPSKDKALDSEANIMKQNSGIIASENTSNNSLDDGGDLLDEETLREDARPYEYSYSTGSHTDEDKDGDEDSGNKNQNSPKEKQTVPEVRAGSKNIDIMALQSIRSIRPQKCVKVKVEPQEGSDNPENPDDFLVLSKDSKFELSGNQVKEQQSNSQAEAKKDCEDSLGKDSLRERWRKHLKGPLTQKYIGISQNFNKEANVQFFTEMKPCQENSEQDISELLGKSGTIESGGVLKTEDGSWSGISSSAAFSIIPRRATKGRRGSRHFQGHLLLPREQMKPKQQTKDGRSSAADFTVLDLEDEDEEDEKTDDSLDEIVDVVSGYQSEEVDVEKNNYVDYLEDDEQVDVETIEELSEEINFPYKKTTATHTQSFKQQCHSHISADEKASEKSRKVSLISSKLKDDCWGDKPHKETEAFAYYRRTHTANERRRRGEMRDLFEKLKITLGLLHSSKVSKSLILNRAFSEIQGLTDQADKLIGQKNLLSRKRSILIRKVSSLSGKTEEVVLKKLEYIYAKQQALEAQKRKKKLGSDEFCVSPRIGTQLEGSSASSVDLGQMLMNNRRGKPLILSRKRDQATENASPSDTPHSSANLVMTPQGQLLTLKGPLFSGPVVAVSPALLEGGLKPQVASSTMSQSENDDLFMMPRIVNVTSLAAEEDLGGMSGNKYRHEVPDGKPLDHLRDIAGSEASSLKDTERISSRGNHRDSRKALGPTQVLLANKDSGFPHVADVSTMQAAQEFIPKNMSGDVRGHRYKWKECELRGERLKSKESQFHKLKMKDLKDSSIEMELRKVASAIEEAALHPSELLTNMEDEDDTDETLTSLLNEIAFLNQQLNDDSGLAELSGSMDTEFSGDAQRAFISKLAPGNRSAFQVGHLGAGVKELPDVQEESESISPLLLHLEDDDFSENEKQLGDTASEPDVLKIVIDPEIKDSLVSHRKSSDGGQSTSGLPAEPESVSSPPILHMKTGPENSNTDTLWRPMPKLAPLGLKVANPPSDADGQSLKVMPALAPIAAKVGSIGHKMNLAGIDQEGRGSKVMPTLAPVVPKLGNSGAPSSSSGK
UniProt Q8VDS3: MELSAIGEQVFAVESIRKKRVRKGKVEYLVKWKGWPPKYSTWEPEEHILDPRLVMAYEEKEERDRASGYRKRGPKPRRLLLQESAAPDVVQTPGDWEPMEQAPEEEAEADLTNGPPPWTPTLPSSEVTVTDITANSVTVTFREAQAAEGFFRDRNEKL
UniProt P59178: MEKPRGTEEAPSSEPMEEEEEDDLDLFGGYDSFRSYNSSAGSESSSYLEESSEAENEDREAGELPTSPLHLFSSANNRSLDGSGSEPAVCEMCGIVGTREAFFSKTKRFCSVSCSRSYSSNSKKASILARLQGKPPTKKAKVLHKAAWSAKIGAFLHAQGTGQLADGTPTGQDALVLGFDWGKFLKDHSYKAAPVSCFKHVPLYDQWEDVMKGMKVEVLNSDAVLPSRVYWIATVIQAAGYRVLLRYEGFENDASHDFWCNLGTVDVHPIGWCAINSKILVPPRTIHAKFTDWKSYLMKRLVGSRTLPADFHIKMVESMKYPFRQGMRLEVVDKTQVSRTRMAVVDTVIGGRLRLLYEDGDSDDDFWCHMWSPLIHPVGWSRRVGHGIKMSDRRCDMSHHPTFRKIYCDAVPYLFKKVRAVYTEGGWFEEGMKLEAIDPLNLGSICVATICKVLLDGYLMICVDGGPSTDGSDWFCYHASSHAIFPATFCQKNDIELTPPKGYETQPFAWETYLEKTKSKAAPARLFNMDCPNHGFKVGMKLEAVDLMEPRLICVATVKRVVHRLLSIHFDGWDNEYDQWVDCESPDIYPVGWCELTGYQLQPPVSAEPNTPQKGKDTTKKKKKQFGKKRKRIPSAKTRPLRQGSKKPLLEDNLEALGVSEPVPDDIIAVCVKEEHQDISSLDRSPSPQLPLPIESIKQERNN

These are yes or no findings as the source states them, for the method shown. In cells and extracts the contact can be indirect. Some entries that bind do so weakly or less than the wild type. Sequences can lack the tags named with a protein.

The labels stand for the following.
T1: CBX6-3×FLAG (mouse) (UniProt Q9DBY5)
T1 sequence: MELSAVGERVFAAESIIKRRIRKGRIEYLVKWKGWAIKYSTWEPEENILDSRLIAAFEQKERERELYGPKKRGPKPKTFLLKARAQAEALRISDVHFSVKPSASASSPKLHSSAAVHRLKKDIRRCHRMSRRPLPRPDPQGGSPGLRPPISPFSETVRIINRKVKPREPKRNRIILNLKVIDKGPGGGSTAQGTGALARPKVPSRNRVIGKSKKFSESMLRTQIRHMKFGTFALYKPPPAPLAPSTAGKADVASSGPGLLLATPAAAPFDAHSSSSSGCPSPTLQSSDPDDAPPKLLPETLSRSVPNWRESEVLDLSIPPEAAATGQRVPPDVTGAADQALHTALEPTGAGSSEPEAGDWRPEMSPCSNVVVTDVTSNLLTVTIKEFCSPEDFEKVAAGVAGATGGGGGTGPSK

B1: CBX6-3×FLAG (protein, UniProt Q9DBY5 1-414)
chain: T1 sequence
B2: RYBP (protein, UniProt Q8CCI5 1-228)
chain: MTMGDKKSPTRPKRQAKPAADEGFWDCSVCTFRNSAEAFKCSICDVRKGTSTRKPRINSQLVAQQVAQQYATPPPPKKEKKEKVEKPDKEKPEKDKDISPSVTKKNTNKKTKPKSDILKDPPSEANSIQSANATTKTSETNHTSRPRLKNVDRSTAQQLAVTVGNVTVIITDFKEKTRSSSTSSSTVTSSAGSEQQNQSSSGSESTDKGSSRSSTPKGDMSAVNDESF
B3: PCGF2/MEL18 (protein, UniProt P23798 1-342)
chain: MHRTTRIKITELNPHLMCALCGGYFIDATTIVECLHSFCKTCIVRYLETNKYCPMCDVQVHKTRPLLSIRSDKTLQDIVYKLVPGLFKDEMKRRRDFYAAYPLTEVPNGSNEDRGEVLEQEKGALGDDEIVSLSIEFYEGVRDREEKKNLTENGDGDKEKTGVRFLRCPAAMTVMHLAKFLRNKMDVPSKYKVEILYEDEPLKEYYTLMDIAYIYPWRRNGPLPLKYRVQPACKRLTLPTVPTPSEGTNTSGASECESVSDKAPSPATLPATSSSLPSPATPSHGSPSSHGPPATHPTSPTPPSTAAGTTTATNGGTSNCLQTPSSTSRGRKMTVNGAPCPP
B4: PHC1 (protein, UniProt Q64028 1-1010)
chain: METESEQNSSSTNGSSSSGASSRPQIAQMSLYERQAVQALQALQRQPNAAQYFHQFMLQQQLSNAQLHSLAAVQQATIAASRQASSPNSSTAQQQTATTQASMNLATTSAAQLISRSQSVSSPSATTLTQSVLLGNTTSPPLNQSQAQMYLRPQLGNLLQVNRTLGRNVPLASQLILMPNGAVAAVQQEVPPAQSPGVHADADQVQNLAVRNQQASAQGPQMPGSTQKAIPPGASPVSGLSQTSSQALAVAQASSGASGQSLNLSQAGGGSGNSLPGSMGPGGGGQAPGGLGQLPSSGLTGGSCPRKGTGVVQPLPAAQTVTVSQGSQTEAESAAAKKAEADGSGQQSVGMNLTRTATPAPSQTLISSATYTQIQPHSLIQQQQQIHLQQKQVVIQQQIAIHHQQQFQHRQSQLLHTATHLQLAQQQQQQQQQQQQQQQQQQQQQQGTTLTAPQPPQVPPTQQVPPSQSQQQAQTLVVQPMLQSSPLTLPPEPTSKPPIPIQSKPPVAPIKPPQLGAAKMSATQQPPPHIPVQVVGTRQPGSAQAQALGLAQLAAAVPTPRGITGAVQPGQAHLASSPPSSQAAPGALQECPPALAAGMTLAPVQGTAHVVKGGPTASSPVVAQVPAAFYMQSVHLPGKAQTLAVKRKAESEEERDDLSALASVLPTKASPAAESPKVIEEKNSLGEKAEPVASLNANPPNSDLVALAPTPSAPPPTLALVSRQMGDSKPPQAIVKPQILTHIIEGFVIQEGAEPFPVGCSQFLKETKKPLQAGLPTGLNESQPSGPLGGDSPSVELEKKANLLKCEYCGKYAPAEQFRGSKRFCSMTCAKRYNVSCSHQFRLKRKKMKEFQEASYARVRRRGPRRSSSDIARAKIQGKRHRGQEDSSRGSDNSSYDEALSPTSPGPLSVRAGHGERDLGNTITTPSTPELQGINPVFLSSNPSQWSVEEVYEFIASLQGCQEIAEEFRSQEIDGQALLLLKEEHLMSAMNIKLGPALKICAKINVLKET
B5: PCGF6 (protein, UniProt Q99NA9 1-353)
chain: MDEAETDATENKRASEAKRASAMPPPPPPPPPISPPALIPAPAAGEEGPASLGQAGAAGCSRSRPPALEPERSLGRLRGRFEDYDEELEEEEEMEEEEEEEEEMSHFSLRLESGRADSEDEEERLINLVELTPYILCSICKGYLIDATTITECLHTFCKSCIVRHFYYSNRCPKCNIVVHQTQPLYNIRLDRQLQDIVYKLVINLEEREKKQMHDFYKERGLEVPKPAAPQPVPSSKGKTKKVLESVFRIPPELDMSLLLEFIGANEDTGHFKPLEKKFVRVSGEATIGHVEKFLRRKMGLDPACQVDIICGDHLLERYQTLREIRRAIGDTAMQDGLLVLHYGLVVSPLKIT

The first assay has as its target RING1B (mouse (endogenous in ESCs)) (UniProt Q9CQJ4). As to the kind of experiment: co-IP; reverse IP with a RING1B-specific antibody from total extracts of CBX6-3×FLAG-expressing ESCs; protein A or G sepharose beads, 4 °C; Western blot. For orientation: Immunoblotting shows a protein as a band on a membrane.
In the case of B1, the binding entry is “binds”.

The target in a further assay is T1, CBX6-3×FLAG (mouse). As to the kind of experiment: co-IP; FLAG M2 beads on total extracts of ESCs expressing CBX6-3×FLAG; IP300 buffer (50 mM Tris-HCl pH 7.6, 300 mM NaCl, 10% glycerol, 0.2% NP-40), 4 °C; Western blot with specific antibodies.
In the case of MGA (from UniProt A2AWL7 1-3003), the binding result is given as “binds”.

On to CBX7 (from UniProt Q8VDS3 1-158), for which the binding entry is “no binding”.

For the molecule L3MBTL2 (from UniProt P59178 1-703), the binding entry was “binds”.

Take RING1B (from UniProt Q9CQJ4 1-336): the binding entry is “binds”.

As for B2, the binding entry was “no binding”.

As for B3, the binding result was “binds”.

With B4, the binding result was “binds”.

Turning to B5, the binding entry is “binds”.
